# The supplement of paper PMC12217912
# The list shows a part of the results. The full chains were built here from the parent and the listed change. Inactive controls read about 0.05.
# B1: TEV protease; numbered along this chain (parent)
# chain: MGESLFKGPRDYNPISSSICHLTNESDGHTTSLYGIGFGPFIITNKHLFRRNNGTLVVQSLHGVFKVKDTTTLQQHLVDGRDMIIIRMPKDFPPFPQKLKFREPQREERICLVTTNFQTKSMSSMVSDTSCTFPSGDGIFWKHWIQTKDGQCGSPLVSTRDGFIVGIHSASNFTNTNNYFTSVPKNFMELLTNQEAQQWVSGWRLNADSVLWGGHKVFMVKPEEPFQPVKEATQL
# Variants of: B1
# Experiment: raw area under fraction-flipped curve 0-4 h after induction (AUC4h, not background-subtracted), DNA-recorder readout of cleavage of the substrate (dimensionless); higher = more cleavage of the substrate by the protease variant
# Conditions: temperature: 34 °C; time window: 0-4 h after rhamnose induction
# 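Also: Bxb1 expression induced with 0.2% (w/v) L-rhamnose at OD600 near 0.5, cultures sampled hourly, flipped fraction per protease–substrate barcode pair counted by paired-end Illumina sequencing.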
Variant,area with substrate ENLYFES,area with substrate ENLYFFS,area with substrate ENLYFGS,area with substrate ENLYFHS,area with substrate ENLYFIS,area with substrate ENLYFLS,area with substrate ENLYFNS,area with substrate ENLYFPS,area with substrate ENLYFTS,area with substrate ENLYFVS
T30V,0.0672,0.0577,0.0388,0.0672,0.0464,0.0595,0.0696,0.0605,0.0619,0.0722
S201Y,0.0688,,,0.0541,,,0.0596,0.0636,0.0366,0.0562
T159F,,0.0772,,0.0558,0.0526,,0.0624,0.0669,,
T159A,0.0579,0.0739,,0.0467,,0.0521,,0.0717,,
N175V,,0.0725,0.0514,0.064,0.0522,,,0.0554,0.0597,
K142C,0.0718,,,0.0571,0.0562,,0.0747,0.061,0.0567,
I84P,0.0247,0.0483,,,,,,,,
F38D,0.0277,,,,,,,,0.0428,
T129E,,0.0628,,0.079,0.0492,,0.0505,,,
T129M,0.0541,0.0722,,0.0583,0.053,0.0581,0.0583,0.0553,,0.0485
R87K,,,,0.0684,,,,,,
G35N,,,,,,0.0089,,,,
F218Y,0.0574,0.0559,,0.0804,0.0483,,,,,
F218T,0.0601,0.0665,,,0.0402,0.0173,,0.0416,,
V58T,,,,0.0536,,,0.0538,,,
N186C,0.0697,0.0615,0.0806,0.0796,0.0569,,,0.0526,0.0525,
K100A,,0.0549,,,0.0399,,,0.0371,,
T114C,,,0.0671,,,,,0.0697,,
T114D,,,,,0.056,,0.0687,0.0508,0.048,
W199I,0.0549,0.059,,,0.0572,,0.0651,0.045,0.0529,
F180Q,,,,0.0381,,,,0.0617,,
P93Y,,0.0701,,,,,0.0624,,0.0611,
P93N,,0.0748,,,0.0635,,,0.0616,,
I86Y,0.0585,0.0596,0.0589,0.0907,0.0548,,0.0637,0.0562,,
T71I,0.0528,,,,,,,0.0593,0.0469,

# Same assay, conditions: temperature: 34 °C; time window: 0-4 h after rhamnose induction
Variant,area with substrate ENLYFWS,area with substrate ENLYFYS,area with substrate ENLYFMS,area with substrate ENLYFRS,area with substrate ENLYFKS,area with substrate ENLYFSS
T30V,0.0587,0.0511,,,,
S201Y,,,0.0566,0.059,,
T159F,,,0.063,,0.0326,
T159A,,,0.0593,0.0581,0.0675,
N175V,0.0462,,,0.0673,,0.0517
K142C,,0.063,0.0851,0.058,,0.0651
I84P,,0.028,0.0337,0.031,,0.0257
F38D,,,,0.0394,,
T129E,,,0.0698,,,
T129M,0.0525,,0.0694,0.0457,,
F218Y,0.0591,,0.0502,0.0635,0.0689,0.0574
F218T,0.0552,,0.0505,0.0757,,
V58T,,,,,0.0587,
N186C,0.0444,0.0381,0.0648,,,
K100A,,,0.0674,0.0542,,
T114C,,0.0637,,0.0644,0.0592,
T114D,,0.052,0.0572,,,
W199I,,,0.0555,,0.0623,
F180Q,,,0.0589,,,
P93N,0.052,,,,0.0537,
I86Y,,0.0635,,,,0.0546
T71I,0.04,,,0.0457,0.0556,0.065
